Data published in the supplement of paper PMC8728848.
The other results are listed elsewhere or left out.

What was measured:
Test in all cases: glycan array binding signal (z-score within array); higher = stronger binding
Settings in all cases: glycan notation: IUPAC condensed, linker removed
[1] = molecular target: Fuc(a1-3)[Gal(b1-4)]GlcNAc
Outline: (§1)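 From the Consortium for Functional Glycomics database, 3228 arrays were curated, keeping only those whose protein sequence was available. Binding is given as a within-array Z-score averaged across arrays sharing a protein sequence and across linkers. Negative Z-scores can be read as non-binding.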

[2] = molecular target: Fuc(a1-3)[Gal(b1-4)]GlcNAc(b1-4)Gal(b1-4)[Fuc(a1-3)]GlcNAc
Outline: as §1

[3] = molecular target: Fuc(a1-3)[Gal(b1-4)]GlcNAc(b1-4)Gal(b1-4)[Fuc(a1-3)]GlcNAc(b1-4)Gal(b1-4)[Fuc(a1-3)]GlcNAc
Outline: as §1

[4] = molecular target: Fuc(a1-3)[Gal3S(b1-4)]GlcNAc
Outline: as §1

[5] = molecular target: Fuc(a1-3)[GalNAc(b1-4)]GlcNAc
Outline: as §1

Fuc(a1-4)GlcNAc = molecular target: Fuc(a1-4)GlcNAc
Outline: as §1

Fuc(b1-3)GlcNAc = molecular target: Fuc(b1-3)GlcNAc
Outline: as §1

Gal(a1-2)Gal = molecular target: Gal(a1-2)Gal
Outline: as §1

Gal(a1-3)Gal = molecular target: Gal(a1-3)Gal
Outline: as §1

Gal(a1-3)Gal(b1-3)GlcNAc = molecular target: Gal(a1-3)Gal(b1-3)GlcNAc
Outline: as §1

Gal(a1-3)Gal(b1-4)Glc = molecular target: Gal(a1-3)Gal(b1-4)Glc
Outline: as §1

Gal(a1-3)Gal(b1-4)GlcNAc = molecular target: Gal(a1-3)Gal(b1-4)GlcNAc
Outline: as §1

[6] = molecular target: Gal(a1-3)Gal(b1-4)[Fuc(a1-3)]GlcNAc
Outline: as §1

Gal(a1-3)GalNAc = molecular target: Gal(a1-3)GalNAc
Outline: as §1

[7] = molecular target: Gal(a1-3)[Gal(a1-4)]Gal(b1-4)GlcNAc
Outline: as §1

Gal(a1-4)Gal(b1-4)Glc = molecular target: Gal(a1-4)Gal(b1-4)Glc
Outline: as §1

Gal(a1-4)Gal(b1-4)GlcNAc = molecular target: Gal(a1-4)Gal(b1-4)GlcNAc
Outline: as §1

Gal(a1-4)GlcNAc = molecular target: Gal(a1-4)GlcNAc
Outline: as §1

Gal(a1-6)Glc = molecular target: Gal(a1-6)Glc
Outline: as §1

Gal(b1-2)Gal = molecular target: Gal(b1-2)Gal
Outline: as §1

Gal(b1-3)Gal = molecular target: Gal(b1-3)Gal
Outline: as §1

Gal(b1-3)GalNAc = molecular target: Gal(b1-3)GalNAc
Outline: as §1

[8] = molecular target: Gal(b1-3)GalNAc(b1-3)Gal(a1-4)Gal(b1-4)Glc
Outline: as §1

[9] = molecular target: Gal(b1-3)GalNAc(b1-4)Gal(b1-4)Glc
Outline: as §1

[10] = molecular target: Gal(b1-3)GalNAc(b1-4)[Neu5Ac(a2-3)]Gal(b1-4)Glc
Outline: as §1

Gal(b1-3)GlcNAc = molecular target: Gal(b1-3)GlcNAc
Outline: as §1

[11] = molecular target: Gal(b1-3)GlcNAc(b1-3)Gal(b1-4)Glc
Outline: as §1

[12] = molecular target: Gal(b1-3)GlcNAc(b1-3)Gal(b1-4)GlcNAc
Outline: as §1

[13] = molecular target: Gal(b1-3)[Fuc(a1-4)]GlcNAc
Outline: as §1

[14] = molecular target: Gal(b1-3)[Fuc(a1-4)]GlcNAc(b1-3)Gal(b1-4)GlcNAc
Outline: as §1

[15] = molecular target: Gal(b1-3)[Fuc(a1-4)]GlcNAc(b1-3)Gal(b1-4)[Fuc(a1-3)]GlcNAc
Outline: as §1

[16] = molecular target: Gal(b1-3)[GlcNAc(b1-6)]GalNAc
Outline: as §1

[17] = molecular target: Gal(b1-3)[Neu5Ac(a2-6)]GalNAc
Outline: as §1

[18] = molecular target: Gal(b1-3)[Neu5Ac(a2-6)]GlcNAc(b1-6)Gal(b1-4)Glc
Outline: as §1

[19] = molecular target: Gal(b1-3)[Neu5Ac(b2-6)]GalNAc
Outline: as §1

[20] = molecular target: Gal(b1-4)GalNAc(a1-3)[Fuc(a1-2)]Gal(b1-4)GlcNAc
Outline: as §1

[21] = molecular target: Gal(b1-4)GalNAc(b1-3)[Fuc(a1-2)]Gal(b1-4)GlcNAc
Outline: as §1

Gal(b1-4)Glc = molecular target: Gal(b1-4)Glc
Outline: as §1

Gal(b1-4)Glc6S = molecular target: Gal(b1-4)Glc6S
Outline: as §1

Gal(b1-4)GlcNAc = molecular target: Gal(b1-4)GlcNAc
Outline: as §1

[22] = molecular target: Gal(b1-4)GlcNAc(b1-2)Man(a1-3)[Gal(b1-4)GlcNAc(b1-2)Man(a1-6)]Man(b1-4)GlcNAc(b1-4)GlcNAc
Outline: as §1

[23] = molecular target: Gal(b1-4)GlcNAc(b1-3)Gal(b1-4)Glc
Outline: as §1

[24] = molecular target: Gal(b1-4)GlcNAc(b1-3)Gal(b1-4)GlcNAc
Outline: as §1

[25] = molecular target: Gal(b1-4)GlcNAc(b1-3)Gal(b1-4)GlcNAc(b1-3)Gal(b1-4)GlcNAc
Outline: as §1

[26] = molecular target: Gal(b1-4)GlcNAc(b1-3)Gal(b1-4)[Fuc(a1-3)]GlcNAc(b1-3)Gal(b1-4)[Fuc(a1-3)]GlcNAc
Outline: as §1

B1: Siglec-H (Mus musculus), Q4QQK7 (protein)
chain: MLLSRLLPLLWVLKWASGNCFILPREVIGTYPSLTLELQSVTVQEGLCVLVPCHLIEYPMNRWSDAAFGYWFHEGENTHPDSLVATNKPYQLVQKEMQSRFHFSGDCSLDIRDAQKGDNGSYFFRLEKGGKTWNFCEERISVHVTDLTHSPNISIPQTLELGRPTNVMCSVPWACERGTPPIFSWMSAALISLGPTTTLSSVLTLTPRLQDHGTNLTCQVTFPGAGVTVQKTIQLNVTYNSQNSTAHVSGRVGPGKPRPLADVVQVAMGEAAIKFLLLGICFFFLSKRSHTKRVERPATHMDQAHAVMD
glycan array binding signal (z-score) [1]: -0.211
glycan array binding signal (z-score) [2]: -0.277
glycan array binding signal (z-score) [3]: -0.236
glycan array binding signal (z-score) [4]: -0.318
glycan array binding signal (z-score) [5]: -0.322
glycan array binding signal (z-score) (Fuc(a1-4)GlcNAc): -0.188
glycan array binding signal (z-score) (Fuc(b1-3)GlcNAc): 0.809
glycan array binding signal (z-score) (Gal(a1-2)Gal): -0.199
glycan array binding signal (z-score) (Gal(a1-3)Gal): -0.35
glycan array binding signal (z-score) (Gal(a1-3)Gal(b1-3)GlcNAc): -0.306
glycan array binding signal (z-score) (Gal(a1-3)Gal(b1-4)Glc): -0.291
glycan array binding signal (z-score) (Gal(a1-3)Gal(b1-4)GlcNAc): -0.404
glycan array binding signal (z-score) [6]: -0.289
glycan array binding signal (z-score) (Gal(a1-3)GalNAc): -0.377
glycan array binding signal (z-score) [7]: -0.314
glycan array binding signal (z-score) (Gal(a1-4)Gal(b1-4)Glc): 0.035
glycan array binding signal (z-score) (Gal(a1-4)Gal(b1-4)GlcNAc): 0.261
glycan array binding signal (z-score) (Gal(a1-4)GlcNAc): -0.368
glycan array binding signal (z-score) (Gal(a1-6)Glc): -0.272
glycan array binding signal (z-score) (Gal(b1-2)Gal): -0.36
glycan array binding signal (z-score) (Gal(b1-3)Gal): -0.376
glycan array binding signal (z-score) (Gal(b1-3)GalNAc): -0.203
glycan array binding signal (z-score) [8]: -0.31
glycan array binding signal (z-score) [9]: -0.227
glycan array binding signal (z-score) [10]: -0.279
glycan array binding signal (z-score) (Gal(b1-3)GlcNAc): -0.179
glycan array binding signal (z-score) [11]: -0.232
glycan array binding signal (z-score) [12]: -0.28
glycan array binding signal (z-score) [13]: 0.302
glycan array binding signal (z-score) [14]: -0.342
glycan array binding signal (z-score) [15]: -0.357
glycan array binding signal (z-score) [16]: 0.675
glycan array binding signal (z-score) [17]: 0.031
glycan array binding signal (z-score) [18]: -0.279
glycan array binding signal (z-score) [19]: -0.168
glycan array binding signal (z-score) [20]: -0.311
glycan array binding signal (z-score) [21]: -0.279
glycan array binding signal (z-score) (Gal(b1-4)Glc): -0.141
glycan array binding signal (z-score) (Gal(b1-4)Glc6S): -0.241
glycan array binding signal (z-score) (Gal(b1-4)GlcNAc): -0.284
glycan array binding signal (z-score) [22]: -0.385
glycan array binding signal (z-score) [23]: -0.191
glycan array binding signal (z-score) [24]: -0.348
glycan array binding signal (z-score) [25]: -0.318
glycan array binding signal (z-score) [26]: -0.258
